Read counts are not given, so values of variants with three or more changes are uncertain.
B1: LINE1-mini (parent)
chain: GGCAGAGCUCAACACAGCGUGGCAAAGUGGCUGUGGCUAGACUGCC

Variants of: B1
Assay: self-cleavage, relative activity (ratio to wild type); higher = more cleavage; in vitro, sequencing; the parent is a self-cleaving ribozyme

Variant | self-cleavage
G7A A14C G44C C46A | 0.11
A6U G30U C42A | 0.17
G7A A14U G19C C37A | 0.02
A6U U9A A24C G30U C46U | 0.13
A6U G19C G21U | 0.26
G7A A16U A24C | 0.18
G7A A39C C42A | 0.36
A6U G7A G27U | 0.07
A6U G19C A25G G36C | 0.02
G7A C8A U20G G40U | 0.28
A6U C37A U38A | 0.02
G7A A12U A16G G36U | 0.31
G7A A25G C31U G33U | 0.02
A6U G27U U38A C45A | 0.23
G7A A12U A16U G27U G35U | 0.89
G7A C8A U9A A25U | 0.18
A6U G7A G19U A24U | 0.1
G7A A16G A26C | 0.08
G7A A16U U34G | 0.12
G7A C8G A14C G21A U28A G40C | 0.02
A6U C23U A39G C46A | 0.05
G7A A12G G29C C31U | 0
A6U G7C C23U A24U G30A | 0.36
G7A A12U A41G | 0.03

Variant | self-cleavage
A6U G21U C23A G35U G36U | 0.18
A6U G17A C37A | 0.02
G7A C8G C10A C15A G22A G40A | 0.04
G7A A16G U32C G35U G44U | 0.01
A6U G7A G22U | 0.02
G7A A11G A16U C42U | 0.03
A6U C13U G19C C23G G35A G36C | 0.87
G7A A16C G19C U20G | 0.09
G7A A25U G35C U43G | 0.06
G7A A12C C18U | 0.05
G7A A12C G40A | 0.03
A6U G7U A41U U43G | 0.19
G7A A12C C23U G27U | 0.01
G7A C8A C18G G22A | 0.15
G7A A24U G29C | 0.06
A6U C31A G36C G44U | 0
A6U C13U C31A A41U | 0.14
A6U G7A U32A | 0.02
G7A A16G G19U U20A A24G G33C | 0.02
A6U C23A A24G A25C | 0.51
G7A A11C C23U A26G U28C | 0.01
A6U G19U C37G | 0.02
A6U C15A C18U U34G | 0.01
A6U G33A C37A | 0.06

Variant | self-cleavage
G7A C8A G21C | 0.11
A6U U9C C23A | 0.07
G7A A14C G36U U38G | 0
G7A A14G U20G A26C | 0.14
A6U U9C A24C U32G | 0.01
A6U C23U U32C A39G | 0.06
G7A A26G U28G U34G | 0.11
A6U G7A A11U C31G G33A A41U U43G C45A | 0
A6U G44U C45U | 0.1
G7A C8G G19A G33U A41C C45A | 0.01
A6U C13U G44U | 0.16
G7A C8G A12G C13A G19C A26G G40U | 0
A6U G7A G21A G22A C23U C31U G33A | 0.11
A6U G22A G27U G30U G35U G44C | 0.12
G7A A16C C23A | 0.28
A6U U9G A12C A14U G22U U34G A41C | 0.01
G7A A16C G22C G29A | 0.14
A6U G7U A14U C37G A39U | 0
A6U U9A G19A G33A A39U C46A | 0.09
A6U G21U C45U | 0.34
G7A A11U G21A G29A | 0.04
G7A C8A C10U | 0.07
A6U C13U C18U A26U G30A C46G | 0.02
A6U C18U C31A G33A | 0.06

Variant | self-cleavage
G7A C8U G21U A41G C46A | 0.47
A6U U28A C31G | 0.1
A6U G29C C42G G44A | 0.01
A6U C18U G30C | 0.39
A6U C15G U20G U28C | 0.02
G7A C8A A39C | 0.29
A6U G21U G33C G35U C46G | 0.12
A6U G22A U43A | 0.09
A6U G33U C45A | 0.12
A6U C15A C23U G27U A39C | 0.08
G7A C8U A14G | 0.28
A6U C23A A26G G29C G40A | 0.01
G7A A11C U28C G30C | 0
A6U G29A G30A C45A | 0.84
G7A A12C U38A | 0.01
A6U U9A A25C | 0.05
A6U G30C C31A | 0.39
G7A A12U C46G | 0.03
A6U G7C C10A C42A | 0
A6U G30C A39U C45A | 0.46
G7A A16C G40U | 0.4
A6U U20C C46G | 1.05
A6U G19A U32C | 0.07
A6U G22U A39C | 0.29

Variant | self-cleavage
G7A C8A U9C C23U G44C C45A | 0.1
A6U C18G A25C A26G | 0.09
A6U C37G A41U | 0
A6U G19C C23U | 0.44
A6U G19U C31U | 0.41
A6U G21A G33A | 0.05
A6U C18U A25G | 0.11
A6U C18A A41G | 2.31
G7A C8G U9G A12G G19A U34C G35C | 0.02
A6U G19A A25G C37A | 0.12
G7A A11U A14G A16C G29A U34A | 0.01
A6U U20C G22C A24C A39C G40A A41C | 0.03
G7A A11U C31G A39C | 0.02
A6U G19A G21C | 0.4
A6U C13U U28G | 0
G7A C8A U43A | 0.12
G7A A11C G40U | 0.02
G7A C8A C18G U20G U32A | 0.09
G7A C8A G36U | 0.21
A6U C37U G44U C45A | 0.13
A6U C23U C42U C46U | 0.42
A6U C18U G33A | 0.08
A6U G21U A26C | 1.56
A6U G7C U34A U38G | 0.01

Variant | self-cleavage
A6U G17C U28C C37A | 0.02
A6U G7U G19C | 0.08
G7A A26U U28G G29U | 0.14
A6U C13U G40C | 0.1
G7A C8G A24U | 0.1
G7A A26U C45G | 0.47
A6U G17A U32A G36C U38C | 0.01
A6U G27C G29U | 0.15
A6U U9G G21U G27U U34A | 0.01
A6U C15U G19C U34C | 0.15
A6U G17A U20C C37U | 0.02
A6U U28C C37G | 0
A6U C15U U20A A25U | 0.05
A6U C37A G40C C45A | 0.37
G7A C8U A11C G35C | 0.03
G7A A12U C13A G35U | 0.22
A6U C15A G21U C23G | 0.03
A6U U9G A14C G21A C31G | 0.01
A6U U34G G40U | 0.03
A6U C31G G33U | 0.1
G7A A26G G30A G35A U38A A39U | 0.08
A6U C18A G19C U20C C45U | 1.28
G7A A12G G27U | 0.04
A6U C15A G29C U32G | 0.27

Variant | self-cleavage
A6U G22A G36A C42U G44U | 0.17
G7A C8G G17A G29U C31U | 0.01
G7A A11G G17U U20C A25C C31U G33U | 0
A6U C15A G40C C42U | 0.39
A6U U20A U28G | 0.13
A6U C15A C37U G40U | 0
A6U G7A G19A G29C | 0.52
G7A A25U G35U | 0.15
A6U G19C A26G G40U | 0.04
A6U G7C C10G U34A | 0.03
A6U C23G A41C | 0.05
A6U G17U G30C G40C G44U C46G | 0
G7A A11U G27U A39C | 0.02
A6U G21C C46U | 0.66
A6U G7C C8G A11G G29C | 0.02
G7A A16C G17C | 0.04
G7A A11C A14U C18G G22A G27U | 0.01
G7A A11G C13A G29A G35U G40C A41U | 0.02
A6U U9C C23G U32A U34A U43A C45A | 0.01
G7A A12C C15U G30U G36A | 0.01
A6U G21U U38G C42U | 0.04
G7A A12C C18U A25U G40A | 0.01
A6U G22C U43C | 0.26
